What is called % Inhibition is the relative decrease from the control value, in per cent.

About 540 (0.36%) of roughly 150,000 compounds showed an effect of 50% or more. Some of the results follow.

The experiment relates to Plasmodium falciparum. The experiment in a line: Primary screen in NF54 nanoGlo assay, in single point, at 2uM, 72h; a lower Z score goes with more inhibition. It is filed as functional, Erythrocyte. The following applies: timepoint 72 hour.
Consider `CCc1noc(NC(C)=O)c1-c1ccc(C)c(S(=O)(=O)Nc2ccc(F)cc2C)c1`, for which the “% Inhibition” value is listed as -9% and the Z score is recorded as 1.24.

Consider `Cc1ccc([C@H](C)N(C)Cc2noc(Cc3ccccc3C)n2)cc1`, for which the “% Inhibition” value is -7% and the Z score was determined as 1.01.

With `NC(=O)N1CCCN(c2ncc(Br)c3ccccc23)CC1`, the “% Inhibition” value is on record as -43% and the Z score amounted to 5.08.

With `O=C(NCCC1=CCCCC1)c1cccc(Oc2cc(-c3cccc(F)c3)ncn2)c1`, the “% Inhibition” value is on record as 3% and the Z score is on record as -0.51.

As for `Cc1ccc(CCC(=O)N2CC[C@H](N(C)C)[C@H](CCCO)C2)cc1C`, the “% Inhibition” value is given as 7% and the Z score is listed as -1.33.

Regarding `OC(Cn1cnc2c(N3CCOCC3CC3CCC3)ncnc21)C1CCCO1` (centres undefined), the “% Inhibition” value was -22% and the Z score was determined as 3.22.

Turning to `O=C(NCCc1ccccc1)c1cc2n(n1)CCN(Cc1ccc(C(F)(F)F)cc1)C2=O`, the “% Inhibition” value came out at 2% and the Z score was -0.2.

Regarding `CCOC(=O)C1C2C(=O)N(c3ccc(C)cc3C)C(=O)C12` (centres undefined), the “% Inhibition” value is on record as 0% and the Z score stood at 0.03.

As to `COc1ccc(C(CNC(=O)N2CC(C)C(C)(CO)C2)N2CCCCC2)cc1` (centres undefined), the “% Inhibition” value stood at 3% and the Z score is -0.23.

Take `COc1cccc2c1CN(C(=O)NCc1cnc(C(F)(F)F)nc1)C2`: the “% Inhibition” value is on record as -1% and the Z score was 0.22.

Regarding `CC/C=C(\C)CN1CCN(C(=O)c2ccco2)[C@H]2CS(=O)(=O)C[C@H]21`, the “% Inhibition” value is -10% and the Z score worked out at 1.86.

Turning to `CCn1nccc1C(=O)N(Cc1cccc(OC)c1)C1CCCCCC1`, the “% Inhibition” value was -4% and the Z score was found to be 0.72.

Regarding `O=C(NCC1CCN(C2CC2)CC1)[C@H]1CCc2nnc(-c3ccccc3)n2C1`, the “% Inhibition” value worked out at 4% and the Z score is -0.74.

As for `CC(C)(C)NC(=O)N1CCCC[C@H]1c1nn(Cc2ccccc2)c2c1COCC2`, the “% Inhibition” value was -5% and the Z score turned out to be 0.53.

For `OC(CNC(c1ccc(F)cc1)c1ncccn1)c1ccco1` (centres undefined), the “% Inhibition” value amounted to 2% and the Z score was -0.17.

With `Cc1ccc(C)c(CNc2nc3ccncc3n(Cc3ccccc3)c2=O)c1`, the “% Inhibition” value is -10% and the Z score amounted to 0.96.

Take `COC(C)(C)C(C)N1C(=O)[C@@H]2CC(F)(F)CN2C1=O` (some centres undefined): the “% Inhibition” value was -2% and the Z score turned out to be 0.38.

`Cc1c(CNCCc2ccco2)c(C(=O)O)c(C)n1-c1ccc(Cl)cc1`: the “% Inhibition” value was 1% and the Z score is recorded as -0.11.

Consider `CC(C)n1cccc1C(=O)NCCCc1nnc2ccccn12`, for which the “% Inhibition” value is recorded as -5% and the Z score is listed as 0.87.

For `Cc1ncoc1CNC(=O)N1CCC[C@@]2(C=Cc3ccccc3O2)C1`, the “% Inhibition” value was -11% and the Z score turned out to be 1.87.

Regarding `O=C(CNC(=O)OCc1ccccc1)Nc1nc2c(s1)C(=O)NCCC2`, the “% Inhibition” value is -8% and the Z score is on record as 1.67.

`Oc1ccc(-c2noc(-c3cnccn3)n2)cc1`: the “% Inhibition” value is 33% and the Z score is listed as -3.75.

Consider `O=C(NC[C@]1(O)CCOC1)C(=O)Nc1ccon1`, for which the “% Inhibition” value is on record as -7% and the Z score came to 1.26.

On to `COc1ccc(CC2(CCC(=O)N(C)C(C)c3cccs3)CCC(=O)N2)cc1` (centres undefined), for which the “% Inhibition” value is -9% and the Z score is on record as 1.3.

For the molecule `COc1ccc(Cl)cc1C(=O)Nc1ccc(N2CCCCC2=O)c(OC)c1`, the “% Inhibition” value came to 3% and the Z score is listed as -0.45.

`Cc1nn([C@H]2CCS(=O)(=O)C2)c(C)c1N1CCN(C(=O)c2nc3ccccc3s2)CC1`: the “% Inhibition” value was -11% and the Z score worked out at 1.92.

Consider `OC1CCCCC1N1CCC(NCc2cc(Cl)cs2)CC1` (centres undefined), for which the “% Inhibition” value was -16% and the Z score came to 1.71.

As to `Cc1c(C(=O)NC2CCC(C(F)F)CC2)[nH]c(=O)c2ccccc12` (centres undefined), the “% Inhibition” value is listed as -1% and the Z score was found to be 0.24.

Turning to `Cc1cc(C(=O)NS(=O)(=O)Cc2ncon2)cc(C)c1F`, the “% Inhibition” value is -5% and the Z score was found to be 0.98.

On to `COc1ccc(-c2cc(C(F)(F)F)c3c(-c4ccc(Cl)cc4)nn(-c4ccc(C)c(C)c4)c3n2)cc1OC`, for which the “% Inhibition” value is given as -9% and the Z score is recorded as 1.16.

In the case of `CCN1C[C@@H](COC(=O)c2ncsc2-c2ccccc2)CC1=O`, the “% Inhibition” value is reported as -12% and the Z score is recorded as 1.29.

With `CC(C)Cc1noc(CN(C)Cc2cc(C#N)n(C)c2)n1`, the “% Inhibition” value is -19% and the Z score stood at 3.58.

For `COc1ccc(CC(=O)N2CCCS(=O)(=O)C[C@H]2C2CC2)nc1`, the “% Inhibition” value is -1% and the Z score is 0.08.

On to `CCN(c1noc(C2CCN(C(=O)C(C)C)CC2)n1)C(C)C`, for which the “% Inhibition” value is reported as -18% and the Z score was 2.32.

For the molecule `COC(=O)c1cccc(N2CC(=O)N(CCn3cc(C)cn3)C2=O)c1`, the “% Inhibition” value was -9% and the Z score is recorded as 0.92.

As to `Cn1cc(CC(=O)OC2C3CCCOC3C2(C)C)cn1` (centres undefined), the “% Inhibition” value is recorded as -16% and the Z score was found to be 2.24.

Take `COC(=O)N1CCCC[C@H]1C(=O)N(C)Cc1noc(C2CC2)n1`: the “% Inhibition” value is -3% and the Z score is recorded as 0.52.

In the case of `NC(=O)[C@@H]1CC(C(=O)Nc2ccccc2C(=O)NCCc2ccccc2)=NN1c1ccccc1`, the “% Inhibition” value was 6% and the Z score is -0.83.

In the case of `CN(C)S(=O)(=O)N(CC#N)Cc1cccc(C#N)c1`, the “% Inhibition” value is listed as -12% and the Z score is recorded as 1.5.

For the molecule `Cc1ncsc1-c1nc(CC(=O)NC2CCCCC2)no1`, the “% Inhibition” value is on record as -2% and the Z score is listed as 0.26.

Regarding `CC(C)n1cc(C#N)c(NC(=O)N(C)C[C@H](C)c2nccs2)n1`, the “% Inhibition” value was found to be 5% and the Z score is recorded as -0.58.

As to `CC(=O)N1CC(C(=O)N2CCN(Cc3ccccc3)CC2)CC(c2cccc(C)c2)C1` (centres undefined), the “% Inhibition” value is listed as 2% and the Z score is listed as -0.33.
